Consider one molecule from patent US20030105295A1 (BETH ISRAEL DEACONESS MEDICAL CENTER, published 2003).

This test concerns the target T1, human IL-15Rá subunit (IL-15 receptor alpha) on PHA-activated human PBMCs (human, UniProt Q13261 31-267).
T1 construct: whole, on cells; also called IL-15á chains
The experiment in a line: flow cytometry, double mutant then biotinylated anti-FLAG Ab and streptavidin-RED670. In general terms: Flow cytometry measures light scatter and fluorescence of single cells or particles in a stream.

T1 sequence (Q13261 31-267): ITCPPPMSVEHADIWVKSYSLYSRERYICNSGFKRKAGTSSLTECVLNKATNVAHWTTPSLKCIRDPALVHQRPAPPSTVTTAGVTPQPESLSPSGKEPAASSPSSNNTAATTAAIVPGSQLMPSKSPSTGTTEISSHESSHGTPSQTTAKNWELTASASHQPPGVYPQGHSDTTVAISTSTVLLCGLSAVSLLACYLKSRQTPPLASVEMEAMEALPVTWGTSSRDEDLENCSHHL

B1: FLAG-HMK-IL-15 (Q149D; Q156D) double mutant protein (ligand, not shown: small tags and cut ends)
chain: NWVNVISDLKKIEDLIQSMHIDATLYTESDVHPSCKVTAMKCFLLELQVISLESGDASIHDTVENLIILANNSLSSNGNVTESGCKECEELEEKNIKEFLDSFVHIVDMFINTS
notes: also called FLAG-HMK-IL-15 double mutant; DM
Turning to B1, the binding result is “binds”.
